# Screen size: about 39,000 compounds; about 220 (0.56%) showed activity. The list shows a part of the results.
# System: Escherichia coli K-12 BW25113
# Experiment: relative growth (OD600 normalised to plate interquartile mean) (fraction); higher = less growth inhibition, active = 0.2 or less
# Details: 50 µM; LB; incubation time: overnight (16-24 h)
# 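Note: static incubation at 37 °C against the wild-type strain, values averaged over two biological replicates.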
row,SMILES,relative growth
1,COc1ccc(S(=O)(=O)N(C)C[C@H]2Oc3ccc(NS(=O)(=O)c4c(C)noc4C)cc3C(=O)N([C@H](C)CO)C[C@H]2C)cc1,inactive: 1.01
2,CC(C)NC(=O)Nc1ccc2c(c1)CC(=O)N([C@H](C)CO)C[C@H](C)[C@@H](CN(C)S(=O)(=O)c1cn(C)cn1)O2,inactive: 0.998
3,COc1ccc2c3c([nH]c2c1)[C@@H](CO)N(CC1CCCCC1)C[C@]13CCN(CC1)C(=O)NC1CCCC1,inactive: 0.983
4,Cc1ccc(-c2ccc3c(c2)O[C@H](CN(C)C(=O)NC(C)C)[C@@H](C)CN([C@H](C)CO)S3(=O)=O)cc1,inactive: 1.05
5,Cc1ccc(S(=O)(=O)Nc2ccc3c(c2)C(=O)N([C@@H](C)CO)C[C@@H](C)[C@H](CN(C)C(=O)Nc2cccc4ccccc24)OCCCC[C@H](C)O3)cc1,inactive: 1.02
6,COCC(=O)N(C)C[C@H]1Oc2cc(-c3ccc(OC)cc3)ccc2S(=O)(=O)N([C@@H](C)CO)C[C@H]1C,inactive: 1
7,Cc1ccc(S(=O)(=O)N(C)C[C@H]2Oc3c(NC(=O)Nc4cccc5ccccc45)cccc3C(=O)N([C@H](C)CO)C[C@H]2C)cc1,inactive: 1
8,COc1ccc(NC(=O)N(C)C[C@H]2Oc3c(NC(=O)c4cc(C)nn4C)cccc3C(=O)N([C@@H](C)CO)C[C@@H]2C)cc1,inactive: 1.01
9,Cc1noc(C)c1S(=O)(=O)Nc1ccc2c(c1)C(=O)N([C@@H](C)CO)C[C@@H](C)[C@H](CN(C)C)OCCCC[C@H](C)O2,inactive: 1
10,NNC(=O)c1cccc(C(=O)NO)c1,inactive: 0.972
11,C[C@H]1CN([C@@H](C)CO)C(=O)c2cc(NC(=O)Nc3cccc4ccccc34)ccc2O[C@@H]1CN(C)Cc1ccc2c(c1)OCO2,inactive: 0.997
12,CCc1ccc(OC[C@@H](O)CN)cc1,inactive: 1
13,CC(C)(/N=N/C(C)(C)C(=N)N)C(=N)N,inactive: 0.99
14,O=C(C[C@H]1CC[C@@H](NS(=O)(=O)c2ccc(F)cc2)[C@H](CO)O1)NCc1ccc(Cl)c(Cl)c1,inactive: 1
15,C[C@@H]1CN([C@@H](C)CO)C(=O)Cc2cc(NC(=O)Nc3cccc4ccccc34)ccc2O[C@@H]1CN(C)S(=O)(=O)c1ccc(Cl)cc1,inactive: 1.05
16,O=C(/C=C/c1ccc(O)c(O)c1)O[C@@H]1C[C@](OC(=O)/C=C/c2ccc(O)c(O)c2)(C(=O)O)C[C@@H](OC(=O)/C=C/c2ccc(O)c(O)c2)[C@H]1O,inactive: 0.961
17,C[C@H]1CN([C@@H](C)CO)S(=O)(=O)c2ccc(C#Cc3cccnc3)cc2O[C@H]1CN(C)C(=O)Nc1ccc2c(c1)OCO2,inactive: 0.972
18,CN(C)CCCNC(=O)C[C@H]1CC[C@H]2[C@@H](COc3ccc(NC(=O)c4ccccc4F)cc3C(=O)N2C)O1,inactive: 1.01
19,COC(=O)c1ccc(O)c(O)c1,inactive: 0.976
20,Cc1noc(C)c1S(=O)(=O)N(C)C[C@H]1Oc2ccc(NC(=O)Nc3ccc4c(c3)OCO4)cc2C(=O)N([C@H](C)CO)C[C@@H]1C,inactive: 1.02

row,SMILES,relative growth
1,COc1ccc(S(=O)(=O)Nc2ccc3c(c2)CC(=O)N([C@H](C)CO)C[C@@H](C)[C@H](CN(C)S(=O)(=O)c2ccc(C)cc2)O3)cc1,inactive: 1.05
2,Cc1noc(C)c1S(=O)(=O)N(C)C[C@@H]1Oc2ccc(NC(=O)C3CCCCC3)cc2CC(=O)N([C@H](C)CO)C[C@H]1C,inactive: 1.02
3,CC(C)c1c(O)ccc2c1CCC1C(C)(C)C(=O)CCC21C (stereo not given),inactive: 0.993
4,CNC[C@@H](O)[C@@H](O)[C@@H](O)[C@@H](O)CO,inactive: 0.986
5,C[C@@H]1CCCCO[C@H](CN(C)CC2CCCCC2)[C@@H](C)CN([C@H](C)CO)C(=O)c2cc(NC(=O)c3ccccc3)ccc2O1,inactive: 0.888
6,C[C@H](CO)N1C[C@H](C)[C@H](CN(C)C(=O)Nc2ccccc2)Oc2ccc(NS(=O)(=O)c3cn(C)cn3)cc2CC1=O,inactive: 1.01
7,C[C@@H]1CN([C@H](C)CO)S(=O)(=O)c2ccc(C#CC3CC3)cc2O[C@H]1CN(C)C(=O)C1CCCCC1,inactive: 0.998
8,CC(C)NC(=O)N(C)C[C@H]1Oc2cc(-c3ccccc3F)ccc2S(=O)(=O)N([C@@H](C)CO)C[C@H]1C,inactive: 0.966
9,Cc1ccc(S(=O)(=O)Nc2ccc3c(c2)CC(=O)N([C@@H](C)CO)C[C@H](C)[C@H](CN(C)S(=O)(=O)c2c(C)noc2C)O3)cc1,inactive: 0.984
10,C[C@@H]1CCCCO[C@@H](CN(C)CC2CCCCC2)[C@@H](C)CN([C@@H](C)CO)C(=O)c2cc(NS(=O)(=O)c3ccc(F)cc3)ccc2O1,inactive: 1
11,C[C@@H]1CCCCO[C@H](CN(C)C(=O)Nc2cccc3ccccc23)[C@H](C)CN([C@@H](C)CO)C(=O)c2cc(NC(=O)c3ccccc3)ccc2O1,inactive: 0.995
12,C[C@H]1CN([C@@H](C)CO)S(=O)(=O)c2ccc(Br)cc2O[C@@H]1CN(C)C(=O)c1cnccn1,inactive: 1
13,O=C(CN1CCOCC1)N[C@H]1CC[C@H](CCNS(=O)(=O)c2ccccc2F)O[C@@H]1CO,inactive: 0.939
14,C[C@@H]1CN([C@H](C)CO)C(=O)Cc2cc(NS(=O)(=O)c3ccc(Cl)cc3)ccc2O[C@@H]1CN(C)C(=O)Nc1ccc(C(F)(F)F)cc1,inactive: 0.993
15,C=C(NC(=O)C(=C)NC(=O)c1csc(C2=N[C@H]3c4csc(n4)[C@H]4NC(=O)c5csc(n5)[C@H](C(C)(O)[C@@H](C)O)NC(=O)[C@H]5CSC(=N5)C(=CC)NC(=O)[C@H]([C@@H](C)O)NC(=O)c5csc(n5)[C@]3(CC2)NC(=O)[C@H](C)NC(=O)C(=C)NC(=O)[C@H](C)NC(=O)[C@H]([C@H](C)CC)N[C@@H]2C=Cc3c([C@H](C)O)cc(nc3[C@H]2O)C(=O)O[C@@H]4C)n1)C(N)=O (stereo not given in full),inactive: 1.02
16,C[C@H](CO)N1C[C@H](C)[C@H](CN(C)S(=O)(=O)c2cccs2)Oc2ncc(C#CCN(C)C)cc2C1=O,inactive: 1.06
17,CCCCCc1ccccn1,inactive: 0.974
18,CO[C@H]1CN(C)C(=O)c2ccc(NC(=O)Nc3ccc(Cl)cc3)cc2OC[C@H](C)N(C(=O)Nc2c(C)noc2C)C[C@@H]1C,inactive: 0.981
19,O=C(Nc1ccc(C(F)(F)F)cc1)Nc1ccc2c(c1)[C@H]1C[C@@H](CC(=O)N3CCc4ccccc4C3)O[C@H](CO)[C@H]1O2,inactive: 1.01
20,C[C@H](CO)N1C[C@H](C)[C@H](CN(C)Cc2ccc(-c3ccccc3)cc2)Oc2ccc(NC(=O)C3CCCCC3)cc2CC1=O,inactive: 1.02

row,SMILES,relative growth
1,CCCN(C)C[C@H]1OCCCC[C@@H](C)Oc2ccc(NS(=O)(=O)c3cn(C)cn3)cc2C(=O)N([C@@H](C)CO)C[C@H]1C,inactive: 1
2,CO[C@H]1/C=C\C=C(/C)C(=O)NC2=CC(=O)C=C(C2=O)[C@H](OC)[C@@H](C)C[C@H](OC)[C@H](O)[C@@H](C)/C=C(\C)[C@@H]1OC(N)=O,inactive: 1
3,CCS(=O)(=O)Nc1ccc2c(c1)C(=O)N(C)C[C@@H](OC)[C@@H](C)CN(C(=O)c1ccc3c(c1)OCO3)[C@H](C)CO2,inactive: 0.984
4,C[C@H](CO)N1C[C@H](C)[C@H](CN(C)Cc2ccc(-c3ccccc3)cc2)Oc2ccc(NC(=O)Nc3cccc4ccccc34)cc2CC1=O,inactive: 1.04
5,COc1cccc(C(=O)Nc2ccc3c(c2)C(=O)N(C)[C@H]2CC[C@H](CC(=O)NCC4CC4)O[C@@H]2CO3)c1,inactive: 1.02
6,C[C@H]1CN([C@@H](C)CO)C(=O)c2cccc(NS(=O)(=O)c3ccc(Cl)cc3)c2O[C@@H]1CN(C)C(=O)Nc1cccc2ccccc12,inactive: 1
7,C[C@H]1CN([C@@H](C)CO)C(=O)c2cc(C#CCN(C)C)cnc2O[C@H]1CN(C)C(=O)c1ccc2c(c1)OCO2,inactive: 1.01
8,C[C@H](CO)N1C[C@H](C)[C@@H](CN(C)S(=O)(=O)c2cn(C)cn2)Oc2ccc(NC(=O)C3CCCCC3)cc2C1=O,inactive: 1.02
9,Cc1noc(C)c1S(=O)(=O)Nc1ccc2c(c1)CC(=O)N([C@@H](C)CO)C[C@@H](C)[C@H](CN(C)Cc1ccccc1)O2,inactive: 1.01
10,COCC(=O)Nc1ccc2c(c1)OC[C@@H](C)N(C(=O)Cc1ccccn1)C[C@H](C)[C@@H](OC)CN(C)C2=O,inactive: 0.987
11,C[C@H](CO)N1C[C@H](C)[C@H](CN(C)S(=O)(=O)c2ccccc2)OCCCC[C@H](C)Oc2ccc(NC(=O)Nc3ccccc3)cc2C1=O,inactive: 1.02
12,Cc1noc(C)c1S(=O)(=O)Nc1ccc2c(c1)C(=O)N([C@H](C)CO)C[C@@H](C)[C@@H](CN(C)C(=O)Nc1ccccc1)O2,inactive: 1
13,CCNC(=O)NS(=O)(=O)c1sc(CC(C)C)cc1-c1ccc(Cn2c(-c3ccccc3)nc(OC)c2C=O)cc1,inactive: 1.02
14,Cc1noc(C)c1NC(=O)N(C)C[C@H]1Oc2c(NC(=O)C3CC3)cccc2C(=O)N([C@H](C)CO)C[C@H]1C,inactive: 1.02
15,O=C1CNC(=S)N1CCc1ccccc1,inactive: 0.975
16,CN1CC2(CCNCC2)OC1=O,inactive: 1.01
17,CCOc1ccc(C(C)(C)N)cc1,inactive: 1
18,C[C@@H]1CN([C@@H](C)CO)C(=O)c2cc(NC(=O)Nc3ccc(C(F)(F)F)cc3)ccc2O[C@@H](C)CCCCO[C@H]1CN(C)S(=O)(=O)c1ccc(Cl)cc1,inactive: 1.02
19,CCNC(=O)c1csc(N)n1,inactive: 0.971
20,Cc1noc(C)c1NC(=O)Nc1ccc2c(c1)C(=O)N([C@H](C)CO)C[C@@H](C)[C@H](CN(C)CC1CC1)OCCCC[C@@H](C)O2,inactive: 0.982

# — the supplement of paper PMC9446081
